Consider 95 molecules from PubChem BioAssay AID485344 (National Center for Advancing Translational Sciences (NCATS), 2010).

Structures are written as SMILES. In all, about 340,000 compounds went through this assay and about 6,900 (2%) were called active. No stated cut-off is given here; in the data, active means inhibition above about 30%; inactive means below that, where a call was filed. Only a part is listed here, and it is no random draw. Entries without a call were filed so in the source. Where a structure was tested more than once in an assay, its records may differ in their call.

In the test the target is D(2) dopamine receptor (Homo sapiens) (UniProt P14416). Nature of the test: HTS Assay for Allosteric Antagonists of the Human D2 Dopamine Receptor: Primary Screen for Antagonists. Further: 0% is about no effect. As to conditions: HEK293 TREx D2 cells, calcium flux, dopamine EC80; at 10 µM; stronger effect = higher value. An outline of the steps: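 Compounds are added to dye-loaded, induced HEK293 T-REx cells coupled to calcium release via D2; after a 3 min kinetic read an EC80 dopamine stimulus is given and fluorescence is recorded for 3 more min.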
Chain of UniProt P14416 (P14416 whole entry, looked up): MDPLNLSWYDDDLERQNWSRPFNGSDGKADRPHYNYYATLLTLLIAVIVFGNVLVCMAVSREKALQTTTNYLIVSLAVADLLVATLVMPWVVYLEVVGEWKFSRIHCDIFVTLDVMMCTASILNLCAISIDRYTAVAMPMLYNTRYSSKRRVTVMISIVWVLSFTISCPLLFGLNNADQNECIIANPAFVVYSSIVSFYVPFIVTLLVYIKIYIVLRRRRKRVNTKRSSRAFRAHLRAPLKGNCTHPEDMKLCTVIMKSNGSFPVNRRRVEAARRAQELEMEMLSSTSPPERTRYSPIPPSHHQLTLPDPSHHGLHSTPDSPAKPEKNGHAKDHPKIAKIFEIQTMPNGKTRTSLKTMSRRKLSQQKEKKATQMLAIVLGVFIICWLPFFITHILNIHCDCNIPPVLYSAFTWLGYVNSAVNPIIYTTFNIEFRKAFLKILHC
`Cc1cccc(NC(=S)NC2CC3CCCC(C2)N3Cc2cccs2)c1` (stereo not given): the inhibition is active: 76.8%.

With `Cc1c(-c2ccc(Cl)cc2)c(=O)oc2c(CN3CCOCC3)c(O)ccc12`, the inhibition is -10%.

For the molecule `O=C(NCCc1ccccc1)c1cc2sccc2n1Cc1ccc(F)cc1`, the inhibition is -4.12%.

Turning to `Cc1ccc(C)c(OCCCN2CCc3ccccc3C2)c1`, the inhibition was active: 70.4%.

As for `CCOc1ccc(NC(=O)CN2CCN(CC(=O)Nc3ccc(OC)cc3)CC2)cc1`, the inhibition was 8.67%.

Consider `COc1ccc(N2CCN(S(=O)(=O)CCNC(=O)c3ccc(OC(C)C)cc3)CC2)cc1`, for which the inhibition came to 12.4%.

As for `COc1ccccc1/C=C/c1nc(C#N)c(N2CCN(c3ccccc3)CC2)o1`, the inhibition amounted to 3.38%.

As for `CN(C(=O)CSc1nc2ccc(NC(=O)COc3ccccc3Cl)cc2s1)c1ccccc1`, the inhibition was -7.44%.

For the molecule `Cc1ccc(Nc2c(-c3ccccc3O)nc3cc(C)ccn23)cc1`, the inhibition stood at 11%.

For `CC(C)(C)c1ccc(OCC(=O)NC(Cc2c[nH]c3ccccc23)C(=O)O)cc1` (stereo not given), the inhibition is 5.1%.

Turning to `COc1cccc(CNC(=O)CCCn2c(=O)c3cccn3c3cccnc32)c1OC`, the inhibition was -6.85%.

For the molecule `CC(=O)Nc1ccc(NS(=O)(=O)c2cc3c4c(c2)CC(=O)N4CCC3)cc1`, the inhibition is -21.3%.

For the molecule `CCCCn1nc(NC(=O)c2cccc(Cl)c2)c2cc3ccc(C)cc3nc21`, the inhibition is -12.8%.

With `COc1cc(C(=O)NCCS(=O)(=O)N2CCN(c3ccccc3)CC2)cc(OC)c1OC`, the inhibition is 18.8%.

`COc1ccc(C2N(S(=O)(=O)c3ccc(C)cc3)CCN2S(=O)(=O)c2ccc(C)cc2)cc1`: the inhibition was active: 36.4%.

For the molecule `Cn1cc(S(=O)(=O)c2ccc(Cl)cc2)c(=O)c2cc(F)c(N3CCOCC3)cc21`, the inhibition is -2.96%.

In the case of `COc1ccc(-c2cc3nc(C)c(CCC(=O)N4CCN(c5cc(C)ccc5C)CC4)c(C)n3n2)c(OC)c1`, the inhibition was -8.41%.

For the molecule `COc1ccc(NC(=O)CSc2nnc3c(C)cc4ccccc4n23)cc1`, the inhibition was -4.81%.

As to `COc1cc(-c2nnn(CC(=O)NCc3ccccc3)n2)cc(OC)c1OC`, the inhibition is -1.69%.

As to `CN(C)[C@@H]1CCC[C@H]1OC(=O)C(c1ccccc1)c1ccccc1`, the inhibition is active: 46.9%.

For the molecule `Cc1cnc2c(c1SCC(=O)NCc1ccc(F)cc1)c(=O)n(C)c(=O)n2C`, the inhibition amounted to 9.98%.

On to `O=C(c1ccc(F)cc1)N1CCC(C(=O)N2CCN(Cc3ccc4c(c3)OCO4)CC2)CC1`, for which the inhibition is active: 30.5%.

For `COc1ccc(CN2CCN(c3ccccc3OC)CC2)c(OC)c1`, the inhibition is active: 91.2%.

In the case of `NNC(=O)CN1C(CN2CCOCC2)=Nc2ccc(Br)cc2C1c1ccccc1` (stereo not given), the inhibition is active: 83%.

Regarding `CCOc1ccc(-c2cc(C(=O)N3CCN(c4ccc(C)cc4)C(C)C3)c3ccccc3n2)cc1` (stereo not given), the inhibition was -23%.

`CCC(=O)N1CCc2cc(S(=O)(=O)NCCC(=O)Nc3ccc(OC)c(OC)c3)ccc21`: the inhibition is -5.51%.

Turning to `CCOc1ccc(NC(=O)C(=O)NCCc2csc(-c3ccc(C)cc3)n2)cc1`, the inhibition was -17.8%.

Turning to `Cc1noc2ncnc(NCc3ccccc3Cl)c12`, the inhibition is -2.7%.

Take `COc1ccc(OC)c(NC(=O)c2sc3nc4c(cc3c2N)CCCCCC4)c1`: the inhibition was -27.7%.

`Cc1ccc(C)c(N2CCN(C(c3ccc(F)cc3)c3nnc(-c4ccccc4)o3)CC2)c1` (stereo not given): the inhibition was -5.9%.

In the case of `Cc1ccccc1CSc1cn(CC(=O)N2CCCC2)c2ccccc12`, the inhibition is -1.07%.

For `CCN(Cc1ccccc1)C(=O)Cn1c(=O)oc2cc(S(=O)(=O)N3CCCCCC3)ccc21`, the inhibition was 5.47%.

For `CCOC(=O)c1cnc2ccccc2c1Nc1ccc(N2CCOCC2)cc1`, the inhibition is -8.37%.

With `COc1ccccc1NC(=O)c1nc(SCc2ccc(F)cc2)ncc1Cl`, the inhibition was -6.59%.

Turning to `Cc1cccc(Cn2c(=O)n(-c3ccc(Cl)c(Cl)c3)c(=O)c3c(C)c(C)sc32)c1`, the inhibition is 18.7%.

On to `COc1cc(NC(=O)c2cc(-c3cccc(Cl)c3)on2)c(OC)cc1Cl`, for which the inhibition was -23%.

In the case of `CCOCCc1nnc(NC(=O)C(=O)c2cc(C)n(-c3cccc(Cl)c3)c2C)s1`, the inhibition was found to be 25.8%.

On to `Cc1ccc2nc(NC(=O)CSc3nccn3Cc3ccccc3)sc2c1`, for which the inhibition is -17.6%.

On to `Cc1ccc(N(CC(=O)N2CCN(c3cc(Cl)ccc3C)CC2)S(=O)(=O)c2c(C)noc2C)cc1`, for which the inhibition is 5.67%.

Turning to `O=C(COC(=O)C1CCN(c2ccc(C(F)(F)F)cn2)CC1)Nc1ncc(Cl)cc1Cl`, the inhibition is active: 34.7%.

For `Clc1ccc(-c2nc3ccccn3c2Nc2ccc3c(c2)OCCO3)s1`, the inhibition was -7.87%.

Consider `Cc1ccc(-n2c(=O)c3cccnc3n2CC(=O)NCc2ccc(F)cc2)cc1C`, for which the inhibition amounted to 0.809%.

On to `Cc1ccc(CNC(=O)CN2CCCN(Cc3ccc(F)cc3)S2(=O)=O)cc1`, for which the inhibition is 4.01%.

Regarding `CCN(CC)S(=O)(=O)c1ccc2c(c1)N(CC(=O)Nc1c(C)cc(C)cc1C)C(=O)C1CCCN21` (stereo not given), the inhibition amounted to 5.18%.

Take `COc1ccc(NC(=O)CSc2nccn2Cc2ccco2)cc1OC`: the inhibition is -0.315%.

Take `O=C(COc1ccccc1F)Nc1ccc(Cl)c(-c2nc3ccccc3[nH]2)c1`: the inhibition came out at 14.7%.

Regarding `Cc1cc(C)c(/C=C/c2onc(C)c2S(=O)(=O)N2CCC(C(=O)Nc3ccc(Cl)c(C(F)(F)F)c3)CC2)c(C)c1`, the inhibition was -13.7%.

`CC1=C(c2ccc(C)c(C)c2)S(=O)(=O)N=C1N1CCC(C(=O)NCc2ccc(Cl)cc2)CC1`: the inhibition came to 12.5%.

As for `O=C(NCCC1=CCCCC1)c1ccc2c(c1)N(Cc1ccc(Cl)cc1)C(=O)c1ccccc1S2=O` (stereo not given), the inhibition is -5.55%.

In the case of `Cn1nc(-c2ccc(Cl)cc2)c2cc(C(=O)N3CCOCC3)sc21`, the inhibition was active: 30.9%.

Take `O=c1c2cc(N3CCOCC3)ccc2[nH]c(=S)n1CCCN1CCCCCC1`: the inhibition was active: 38.7%.

For `CCOC(=O)c1cccc(NC(=O)c2cnc(N3CCCCC3)c3ccccc23)c1`, the inhibition is -0.495%.

As to `CCOc1ccc(NC(=O)Cn2cc(C(=O)c3ccc(CC)cc3)c(=O)c3ccc(C)nc32)cc1`, the inhibition was -2.98%.

For `CCc1cccc(NC(=O)CC2Oc3ccc(C)cc3NC2=O)c1` (stereo not given), the inhibition is 15.2%.

`Cc1ccc(NC(=O)CC2Sc3ccccc3NC2=O)c(Br)c1` (stereo not given): the inhibition stood at 10.5%.

Consider `OC1(c2ccc(Br)cc2)CCN(Cc2cccc(Br)c2)CC1`, for which the inhibition is active: 103%.

For the molecule `C=C(C)Cn1c(SCC(=O)Nc2cccc(Cl)c2)nc2sc3c(c2c1=O)CCCC3`, the inhibition is -5.29%.

As to `O=C(NCCS(=O)(=O)N1CCN(c2cccc(Cl)c2)CC1)c1cc(=O)c2ccccc2o1`, the inhibition was -11.1%.

On to `CN1CCC(Oc2ccccc2Sc2ccccc2)CC1`, for which the inhibition was active: 32.4%.

`CCn1c(CNC(=O)C23CC4CC(CC(C4)C2)C3)nnc1SCC(=O)Nc1ccc(F)cc1`: the inhibition came out at 2.22%.

With `CCOC(=O)c1cc(NC(=O)c2ccc(OC)cc2)c(=O)n2c1oc1ccc(Cl)cc12`, the inhibition amounted to 22.5%.

As to `CC1Cc2ccccc2N1C(=O)CSc1nnc(-c2cccc(Cl)c2)o1` (stereo not given), the inhibition is -10.5%.

For the molecule `O=c1[nH]c2ccc(NCc3ccccc3F)cc2[nH]1`, the inhibition came to 7.51%.

With `O=C(CCc1ccccc1)NCc1ccc2c(c1)CCN2C(=O)c1ccc(Cl)cc1`, the inhibition was -0.162%.

Turning to `CCOc1ccc(CCNC(=O)c2cc3c(=O)n(C)c4ccccc4c3n2C)cc1`, the inhibition was determined as 20.7%.

For the molecule `COc1ccc(/C=C/C(=O)Nc2ccc3nc(N4CCCCC4)cc(C)c3c2)cc1OC`, the inhibition was -0.876%.

For `COc1cc(NC(=O)c2ccc(-n3cnc4cccnc43)cc2)cc(OC)c1`, the inhibition came to 13%.

With `CC(C)c1ccc(Nc2c(-c3ccco3)nc3ccccn23)cc1`, the inhibition stood at 0.884%.

In the case of `O=c1c(Cc2ccc(F)cc2)c(O)ccn1CCc1ccccn1`, the inhibition was active: 40.9%.

With `Cc1ccc(S(=O)(=O)N(CC(=O)Nc2ccc3c(c2)OCO3)c2ccc(C)c(Cl)c2)cc1`, the inhibition is -3.47%.

On to `CCOC(=O)c1ccc(NC(=O)CSc2nc3c([nH]c4ccccc43)c(=O)n2C)cc1`, for which the inhibition turned out to be 6.82%.

For `Cc1cn2c(=O)cc(COc3ccccc3NC(=O)c3ccc(Cl)cc3)nc2s1`, the inhibition is 10.7%.

`Cc1ccc(NC(=O)C2CCC(CNS(=O)(=O)c3ccc4c(c3)CCCC(=O)N4)CC2)c(C)c1` (stereo not given): the inhibition is 4.28%.

On to `Cc1ccc2oc(-c3ccc(Cl)c(NC(=O)c4ccc(OC(C)C)cc4)c3)nc2c1`, for which the inhibition is 2.58%.

Turning to `CCCCc1nc2ccccc2n1CC(=O)N(COCC)c1c(C)cccc1CC`, the inhibition is -16.4%.

As to `CC1=Nc2ccc(C)cc2/C1=C/c1c(N)n2oc(C)cc2nc1=O`, the inhibition was active: 60.6%.

Regarding `COC(=O)c1ccccc1NC(=O)Cn1c(=O)n(CCCC(=O)NCc2ccccc2OC)c(=O)c2ccccc21`, the inhibition was determined as 1.23%.

For the molecule `COc1ccc(-c2cc(=O)oc3c4c(ccc23)OCN(Cc2cccc(OC)c2)C4)cc1`, the inhibition was found to be 4.65%.

Regarding `Cc1ccc(C)c(NC(=O)C(c2ccccc2)N2Cc3ccccc3C2=O)c1` (stereo not given), the inhibition was -11.8%.

With `Cc1cc(C)cc(-n2ccn(CC(=O)Nc3ccccc3F)c(=O)c2=O)c1`, the inhibition was -7.28%.

In the case of `CCOc1ccc(-n2nc(CO)c(C(=O)NCc3cccc(OC)c3)n2)cc1`, the inhibition turned out to be 1.91%.

For `CC(=O)c1ccc(NC(=O)c2nc3nc(C)cc(C(F)F)n3n2)cc1`, the inhibition stood at 15.1%.

Take `O=C(CCC1N=C2c3ccccc3N=C(SCc3ccc(F)cc3)N2C1=O)NC1CCCCC1` (stereo not given): the inhibition came out at 16%.

As for `COc1cc2cc(CNc3ccccc3)c(=O)n(CC(=O)Nc3cc(C)cc(C)c3)c2cc1OC`, the inhibition came to 0.954%.

As for `COc1ccccc1NC(=O)C1CCN(c2cnccn2)CC1`, the inhibition came to 23.6%.

For the molecule `CC(=O)N1CCCc2cc(S(=O)(=O)N3CCN(c4cccc(C(F)(F)F)c4)CC3)ccc21`, the inhibition came out at 6.07%.

`CCN1/C(=C/c2ccc3cc(C)ccc3[n+]2CC)Sc2cc(C)ccc21`: the inhibition is active: 34.5%.

Regarding `CC1CC(C)CN(CCCNC(=O)c2ccc3c(c2)NC(=O)C(N2CCCCC2)S3)C1` (stereo not given), the inhibition was active: 87.7%.

On to `CCN(CCN(C)C)C(=O)C1CCN(S(=O)(=O)c2c(C)noc2/C=C/c2ccccc2F)CC1`, for which the inhibition is -26.1%.

Take `COC(=O)Cc1c(C)c2cc3c(c(C)c2oc1=O)OCN(CCc1ccc(OC)cc1)C3`: the inhibition was 16.6%.

In the case of `Cc1cc(C)c(NC(=O)Cn2nnc(-c3nc(-c4ccccc4)no3)c2N)c(C)c1`, the inhibition was determined as 1.64%.

With `CN(C)c1ncc(CN2CCC(CO)(CCCc3ccccc3)CC2)s1`, the inhibition is active: 62.2%.

Consider `Cc1cc(C)c2c(n1)SCCN2C(=O)Nc1ccc(C(=O)Nc2ccc(C(C)C)cc2)cc1`, for which the inhibition came out at 7.25%.

In the case of `O=C(Nc1c(Cl)cccc1Cl)c1cc(-c2cccc(O)c2)on1`, the inhibition was found to be 18.2%.

As to `Cc1cccc(-c2c3c(=O)n(C)c(=O)n(C)c3c3cnc4ccccc4n23)c1`, the inhibition was 4.13%.
